Assay results as given in the supplement of paper PMC11417369.
± gives the standard deviation of the averaged measurements. The list shows a part of the results.

test system: PfAP2-G AP2 domain (GST-tagged); test: gcPBM binding intensity (ln(normalized median fluorescence intensity)); higher = stronger DNA binding
Procedure, shortened: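 Binding of GST-tagged P. falciparum DNA-binding domains, expressed in E. coli and used at about 25 μg on average, was carried out for 1 h in 1× PBS containing 1% milk, 0.2 mg/ml BSA, 0.5% salmon testes DNA and 0.03% Triton X-100. The target was an Agilent 4 × 180k array of primer-extended double-stranded 36-bp intergenic genomic probes plus negative controls, read with Alexa488 anti-GST antibody at 488 nm. Binding intensity is the highest Masliner-normalised natural-log median intensity across replicate spots of either probe orientation.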

Row | Sequence | gcPBM binding intensity (ln)
1 | TATGATATATATAATACACACATATACATAAGATCT [CACACA_site1119] | 9.98 ± 0.057
2 | AATATATATATATTATCACACACTCACGTTTGACAA [CACACA_site8130] | 9.79 ± 0.16
3 | TTATATATATTTAAAAAAATAACATAAATAAATAAA [CACACA_negctrl_site347] | 9.76 ± 0.19
4 | TTAAATAAAAGGTTTAGTACTTAAAATAAGAAATGA [XGTACX_site6341] | 11 ± 0.56
5 | GTAAATATAAACTCAGCACACAAACATATATATGTC [CACACA_site9326] | 9.955 ± 0.078
6 | CACTTTTTTTTTTACTGTACATATACAAATTAAAAA [XGTACX_site1565] | 11.4 ± 0.93
7 | TTTTATTTATCTTAATGTACACATTTATATATATAT [XGTACX_site8588] | 11.7 ± 1.3
8 | TATAATAATTAAAAGTGTACTAAATTTTTACATATA [XGTACX_site2523] | 11.3 ± 0.88
9 | TGGGTGTAGAACAATTGTACTTTGTAAAAATATAAG [XGTACX_site8464] | 11 ± 0.47
10 | TTTTTTTTCAATGGTTGTACAAAGTAAAACAACAAA [XGTACX_site1582] | 11.1 ± 0.94
11 | ATAAAATGTTAAGGGTGTACTTTACACATCTCCTAT [XGTACX_site4699] | 11.1 ± 0.67
12 | TATAAATAAAGCAGTACACACATTTATTTTAGATAC [CACACA_site7566] | 11.3 ± 0.87
13 | ATAGGGAATTTATGCACACAGTTAAGGGGGAAAATT [CACACA_site5183] | 10.8 ± 0.49
14 | TATATTAAATAAAAAGTGCATGTCTCATAAGATGGA [GTGCAC_site9520] | 10.1 ± 0.12
15 | ATAAACACATCTATATGTACATATATATATATATAC [XGTACX_site347] | 11.1 ± 0.68
16 | ATGTAAATACATATATGTACACAAATATATATATAT [XGTACX_site3537] | 11.6 ± 1.1
17 | TATATAAATATACATTGTACTCAACATTTTCATTAA [XGTACX_site3690] | 11.2 ± 0.85
18 | TTTATACTATAATTATGTACTTATAAAAGGAATAAA [XGTACX_site8027] | 11.3 ± 0.7
19 | TGTATTAATAAAAATACACACATCATATTATAGAAA [CACACA_site7629] | 9.895 ± 0.078

Row | Sequence | gcPBM binding intensity (ln)
20 | TTAAAAAAAGATTATACACACACATATATAAACATA [CACACA_site8136] | 9.865 ± 0.092
21 | TCCTCTTTTATTTTTACACACGCGTAAACATATATA [CACACA_site667] | 10.5 ± 0.4
22 | TGAAATAAAAAATATAGTACTCGTTCGTAACCAAAA [XGTACX_site413] | 11.4 ± 0.85
23 | ATGGGTTAAAAATGCACACAAAAAAATATACAGATA [CACACA_site4321] | 10.3 ± 0.15
24 | TATAAGATTATACAAAGTACATATAAATAATATATT [XGTACX_site1917] | 10.9 ± 0.8
25 | ATATATATATAAATATGTACATATATATATTATATA [XGTACX_site120] | 11.2 ± 0.62
26 | TTCAATTTTTTATGAACACACAAAAAAAAAAAAAAA [CACACA_site2533] | 10.1 ± 0.52
27 | ACATAATTAACAAATACACACACACCCACCCACAAA [CACACA_site8069] | 10.7 ± 0.43
28 | ATATATAAGGATGTCACACATAAATATTAACACTAA [CACACA_site5101] | 10.07 ± 0.085
29 | AAGAAAAAATATATATATATATATATATATAATATG [TGCATGCA_negctrl_site417] | 9.69 ± 0.26
30 | ATTTGTGATTTGTGTGTGCACGTATTTACAGAACAA [GTGCAC_site9498] | 10.9 ± 0.43
31 | TTATATTATTTTTATACATGCATTTCTATATATTTT [TGCATGCA_site164] | 9.89 ± 0.17
32 | ATATATATTTCTTAAAGTACATAATAATAAAAATAT [XGTACX_site8981] | 11 ± 0.71
33 | ATAATTATTAAGAGAACATGCAAAATATATATGTTT [TGCATGCA_site503] | 10.01 ± 0.021
34 | AAAGCACCCAGGCACACACACAAAGGAAAAGAAAAA [CACACA_site232] | 10.1 ± 0.32
35 | TTAAAATATGATATATGTACATAATTACTAAAAACA [XGTACX_site276] | 11.2 ± 0.47
36 | GAATAAATTAAAAACGCATGTATCATTACTACATAA [TGCATGCA_site111] | 9.8 ± 0.014
37 | TTTATATTATACTATACATGCATATAATAAAGGTCA [TGCATGCA_site934] | 9.95
38 | ATATATATATATATTTGTACGTATTATGTATTTTTT [XGTACX_site3530] | 11.5 ± 0.98

Row | Sequence | gcPBM binding intensity (ln)
39 | AATACAATAAAATAGTGTACATATATATTATGTATA [XGTACX_site8258] | 11.4 ± 0.88
40 | ATTATTTCTTTGTGATGTACAAATAAACATGTTGGT [XGTACX_site5636] | 10.9 ± 0.58
41 | TATATATTACATTGTTGTACATATATATTATATATA [XGTACX_site60] | 11.1 ± 0.8
42 | AATAGAATAATCCTTACACACACACGCGCACGAATA [CACACA_site6365] | 10.3 ± 0.18
43 | ATTTTATTTTTTTGTGATAATTGATTTATATATTGT [TGCATGCA_negctrl_site563] | 9.79 ± 0.12
44 | CATAATACCTATAACACACACAATTATACATAAACT [CACACA_site7506] | 10.1 ± 0.12
45 | ATTTATCCAAAAAAATGTACAGGATAATTTGTTCAT [XGTACX_site7737] | 10.9 ± 0.47
46 | TATTATGCCTTTAATATACACACTAATATTTTTTTG [CACACA_site2045] | 10.12 ± 0.099
47 | GGGTTCAATTTAAAGAGTACAAAAAATGTAGGTCAT [XGTACX_site5290] | 11.4 ± 0.89
48 | TTTGTAGTTTGCACATGTACACATTTCAAAATAAAG [XGTACX_site7568] | 11.5 ± 0.9
49 | TTTTAATAAACAAAACGTACACATTATTATTATATA [XGTACX_site335] | 11.4 ± 0.91
50 | TTTCCATATTGTGGATGTACGTTTTGAGGTTTTTAC [XGTACX_site3362] | 11.2 ± 0.9
51 | AATATATACATATATTGTACATATAGTTTCTTGCAT [XGTACX_site7871] | 10.9 ± 0.5
52 | TTTTTTTTTTTGTGGGTGCGTTTATAAAAACAGGAA | 10.5 ± 0.64
53 | TTTTTTTCTTGTTTTAAATAATATACTGGAAAAAAA [CACACA_negctrl_site585] | 9.97 ± 0.37
54 | AGAGAGAAAGTTATAACATGCAACAATTTTTAGAAC [TGCATGCA_site96] | 9.785 ± 0.021
55 | ATAATACATATAGAAGGTACACTATTATTTTCCTGA [XGTACX_site903] | 11.1 ± 0.62
56 | GAGGTACATTAATTAGTGCATTAAAATTTTTATCCT | 10.9 ± 0.67
57 | TTTAACATAAATTAAACACACAATAAAATACATTAA [CACACA_site6699] | 10.1 ± 0.12
